# Test results: the supplement of paper PMC8728848
# This is one part of the list.
# B1: WGA (Triticum vulgare) (protein)
# chain: QRCGEQGSNMECPNNLCCSQYGYCGMGGDYCGKGCQNGACWTSKRCGSQAGGATCPNNHCCSQYGHCGFGAEYCGAGCQGGPCRADIKCGSQSGGKLCPNNLCCSQWGFCGLGSEFCGGGCQSGACSTDKPCGKDAGGRVCTNNYCCSKWGSCGIGPGYCGAGCQSGGCDAVFAGAITANSTLLAE
# How the values were obtained:
# Assay in all cases: glycan array binding signal (z-score within array); higher = stronger binding
# Conditions in all cases: glycan notation: IUPAC condensed, linker removed
# [1] = target: Fuc(a1-2)[GalNAc(a1-4)]Gal(b1-4)GlcNAc
# Outline: (§1)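 The Consortium for Functional Glycomics database supplied 3228 glycan arrays, of which those lacking an available protein sequence were dropped. The binding signal, a within-array Z-score, was averaged across arrays of the same protein sequence and across linkers. Negative scores can be read as non-binding.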
# [2] = target: Fuc(a1-2)[GalNAc(b1-3)]Gal
# Outline: as §1
# Fuc(a1-3)GlcNAc = target: Fuc(a1-3)GlcNAc
# Outline: as §1
# [3] = target: Fuc(a1-3)[Gal(b1-4)]Glc6S
# Outline: as §1
# [4] = target: Fuc(a1-3)[Gal(b1-4)]GlcNAc
# Outline: as §1
# [5] = target: Fuc(a1-3)[Gal(b1-4)]GlcNAc(b1-2)Man
# Outline: as §1
# [6] = target: Fuc(a1-3)[Gal(b1-4)]GlcNAc(b1-2)Man(a1-3)[Fuc(a1-3)[Gal(b1-4)]GlcNAc(b1-2)Man(a1-6)]Man(b1-4)GlcNAc(b1-4)GlcNAc
# Outline: as §1
# [7] = target: Fuc(a1-3)[Gal(b1-4)]GlcNAc(b1-2)Man(a1-3)[Fuc(a1-3)[Gal(b1-4)]GlcNAc(b1-2)Man(a1-6)]Man(b1-4)GlcNAc(b1-4)[Fuc(a1-6)]GlcNAc
# Outline: as §1
# [8] = target: Fuc(a1-3)[Gal(b1-4)]GlcNAc(b1-3)Gal(b1-3)[Fuc(a1-4)]GlcNAc
# Outline: as §1
# [9] = target: Fuc(a1-3)[Gal(b1-4)]GlcNAc(b1-3)Gal(b1-4)[Fuc(a1-3)]GlcNAc
# Outline: as §1
# [10] = target: Fuc(a1-3)[Gal(b1-4)]GlcNAc(b1-3)Gal(b1-4)[Fuc(a1-3)]GlcNAc(b1-3)Gal(b1-4)[Fuc(a1-3)]GlcNAc
# Outline: as §1
# [11] = target: Fuc(a1-3)[Gal(b1-4)]GlcNAc(b1-3)GalNAc
# Outline: as §1
# [12] = target: Fuc(a1-3)[Gal(b1-4)]GlcNAc(b1-4)Gal(b1-4)[Fuc(a1-3)]GlcNAc
# Outline: as §1
# [13] = target: Fuc(a1-3)[Gal(b1-4)]GlcNAc(b1-4)Gal(b1-4)[Fuc(a1-3)]GlcNAc(b1-4)Gal(b1-4)[Fuc(a1-3)]GlcNAc
# Outline: as §1
# [14] = target: Fuc(a1-3)[Gal(b1-4)]GlcNAc(b1-6)GalNAc
# Outline: as §1
# [15] = target: Fuc(a1-3)[Gal(b1-4)]GlcNAc(b1-6)[Gal(b1-3)GlcNAc(b1-3)]Gal(b1-4)Glc
# Outline: as §1
# [16] = target: Fuc(a1-3)[Gal(b1-4)]GlcNAc6S
# Outline: as §1
# [17] = target: Fuc(a1-3)[Gal3S(b1-4)]Glc
# Outline: as §1
# [18] = target: Fuc(a1-3)[Gal3S(b1-4)]GlcNAc
# Outline: as §1
# [19] = target: Fuc(a1-3)[Gal3S(b1-4)]GlcNAc6S
# Outline: as §1
# [20] = target: Fuc(a1-3)[GalNAc(b1-4)]GlcNAc
# Outline: as §1
# [21] = target: Fuc(a1-3)[GalNAc(b1-4)]GlcNAc6S
# Outline: as §1
# Fuc(a1-4)GlcNAc = target: Fuc(a1-4)GlcNAc
# Outline: as §1
# Fuc(b1-3)GlcNAc = target: Fuc(b1-3)GlcNAc
# Outline: as §1
# Gal(a1-2)Gal = target: Gal(a1-2)Gal
# Outline: as §1
# Gal(a1-3)Gal = target: Gal(a1-3)Gal
# Outline: as §1
# Gal(a1-3)Gal(b1-3)GlcNAc = target: Gal(a1-3)Gal(b1-3)GlcNAc
# Outline: as §1
# [22] = target: Gal(a1-3)Gal(b1-3)GlcNAc(b1-2)Man
# Outline: as §1
# [23] = target: Gal(a1-3)Gal(b1-3)GlcNAc(b1-2)Man(a1-3)[Gal(a1-3)Gal(b1-3)GlcNAc(b1-2)Man(a1-6)]Man(b1-4)GlcNAc(b1-4)GlcNAc
# Outline: as §1
# [24] = target: Gal(a1-3)Gal(b1-3)GlcNAc(b1-3)GalNAc
# Outline: as §1
# [25] = target: Gal(a1-3)Gal(b1-3)GlcNAc(b1-6)GalNAc
# Outline: as §1
# [26] = target: Gal(a1-3)Gal(b1-3)[Fuc(a1-4)]GlcNAc(b1-2)Man(a1-3)[Gal(a1-3)Gal(b1-3)[Fuc(a1-4)]GlcNAc(b1-2)Man(a1-6)]Man(b1-4)GlcNAc(b1-4)GlcNAc
# Outline: as §1
# Gal(a1-3)Gal(b1-4)Glc = target: Gal(a1-3)Gal(b1-4)Glc
# Outline: as §1
# Gal(a1-3)Gal(b1-4)GlcNAc = target: Gal(a1-3)Gal(b1-4)GlcNAc
# Outline: as §1
# [27] = target: Gal(a1-3)Gal(b1-4)GlcNAc(b1-2)Man
# Outline: as §1
# [28] = target: Gal(a1-3)Gal(b1-4)GlcNAc(b1-2)Man(a1-3)[Gal(a1-3)Gal(b1-4)GlcNAc(b1-2)Man(a1-6)]Man(b1-4)GlcNAc(b1-4)GlcNAc
# Outline: as §1
# [29] = target: Gal(a1-3)Gal(b1-4)GlcNAc(b1-3)GalNAc
# Outline: as §1
# [30] = target: Gal(a1-3)Gal(b1-4)GlcNAc(b1-6)GalNAc
# Outline: as §1
# [31] = target: Gal(a1-3)Gal(b1-4)[Fuc(a1-3)]GlcNAc
# Outline: as §1
# [32] = target: Gal(a1-3)Gal(b1-4)[Fuc(a1-3)]GlcNAc(b1-2)Man(a1-3)[Gal(a1-3)Gal(b1-4)[Fuc(a1-3)]GlcNAc(b1-2)Man(a1-6)]Man(b1-4)GlcNAc(b1-4)GlcNAc
# Outline: as §1
# Gal(a1-3)GalNAc = target: Gal(a1-3)GalNAc
# Outline: as §1
# [33] = target: Gal(a1-3)[Gal(a1-4)]Gal(b1-4)GlcNAc
# Outline: as §1
# [34] = target: Gal(a1-4)Gal(b1-3)GlcNAc(b1-2)Man(a1-3)[Gal(a1-4)Gal(b1-3)GlcNAc(b1-2)Man(a1-6)]Man(b1-4)GlcNAc(b1-4)GlcNAc
# Outline: as §1
# Gal(a1-4)Gal(b1-4)Glc = target: Gal(a1-4)Gal(b1-4)Glc
# Outline: as §1
# Gal(a1-4)Gal(b1-4)GlcNAc = target: Gal(a1-4)Gal(b1-4)GlcNAc
# Outline: as §1
binder,measurement,setting,value
B1,glycan array binding signal (z-score),[1],3
same,glycan array binding signal (z-score),[2],-0.35
same,glycan array binding signal (z-score),Fuc(a1-3)GlcNAc,-0.36
same,glycan array binding signal (z-score),[3],-0.284
same,glycan array binding signal (z-score),[4],-0.351
same,glycan array binding signal (z-score),[5],-0.33
same,glycan array binding signal (z-score),[6],-0.289
same,glycan array binding signal (z-score),[7],-0.307
same,glycan array binding signal (z-score),[8],-0.332
same,glycan array binding signal (z-score),[9],-0.381
same,glycan array binding signal (z-score),[10],-0.408
same,glycan array binding signal (z-score),[11],-0.327
same,glycan array binding signal (z-score),[12],-0.237
same,glycan array binding signal (z-score),[13],-0.264
same,glycan array binding signal (z-score),[14],-0.307
same,glycan array binding signal (z-score),[15],-0.342
same,glycan array binding signal (z-score),[16],-0.307
same,glycan array binding signal (z-score),[17],-0.336
same,glycan array binding signal (z-score),[18],-0.497
same,glycan array binding signal (z-score),[19],-0.361
same,glycan array binding signal (z-score),[20],1.39
same,glycan array binding signal (z-score),[21],-0.223
same,glycan array binding signal (z-score),Fuc(a1-4)GlcNAc,-0.38
same,glycan array binding signal (z-score),Fuc(b1-3)GlcNAc,-0.359
same,glycan array binding signal (z-score),Gal(a1-2)Gal,-0.365
same,glycan array binding signal (z-score),Gal(a1-3)Gal,-0.354
same,glycan array binding signal (z-score),Gal(a1-3)Gal(b1-3)GlcNAc,-0.352
same,glycan array binding signal (z-score),[22],-0.363
same,glycan array binding signal (z-score),[23],-0.217
same,glycan array binding signal (z-score),[24],-0.349
same,glycan array binding signal (z-score),[25],-0.388
same,glycan array binding signal (z-score),[26],-0.202
same,glycan array binding signal (z-score),Gal(a1-3)Gal(b1-4)Glc,-0.342
same,glycan array binding signal (z-score),Gal(a1-3)Gal(b1-4)GlcNAc,-0.01
same,glycan array binding signal (z-score),[27],-0.338
same,glycan array binding signal (z-score),[28],-0.118
same,glycan array binding signal (z-score),[29],-0.357
same,glycan array binding signal (z-score),[30],-0.293
same,glycan array binding signal (z-score),[31],-0.36
same,glycan array binding signal (z-score),[32],-0.3
same,glycan array binding signal (z-score),Gal(a1-3)GalNAc,-0.333
same,glycan array binding signal (z-score),[33],1.26
same,glycan array binding signal (z-score),[34],-0.238
same,glycan array binding signal (z-score),Gal(a1-4)Gal(b1-4)Glc,-0.335
same,glycan array binding signal (z-score),Gal(a1-4)Gal(b1-4)GlcNAc,0.221
